Measured values published in the supplement of paper PMC4604168 (melanoma cell lines).
Some of the results follow. Many values rest on one well or one pass, so single values are uncertain.

Key:
Experiment in all cases: cell count relative to DMSO control; melanoma cells; higher = more viable cells
Conditions in all cases: library dose: standard library concentration; 72 h
SkMel28 = tested on: SkMel28
SkMel2 = tested on: SkMel2
SkMel30 = tested on: SkMel30
SkMel5 = tested on: SkMel5
UACC257 = tested on: UACC257
UACC62 = tested on: UACC62
WM115 = tested on: WM115
WM1716 = tested on: WM1716
WM1745 = tested on: WM1745
WM3526 = tested on: WM3526
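Further: cells treated in 1,536-well plates, then fixed and DAPI-stained, with nuclei counted from automated high-throughput microscope images.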

| Structure (SMILES) | cell count (SkMel28) [%] | cell count (SkMel2) [%] | cell count (SkMel30) [%] | cell count (SkMel5) [%] | cell count (UACC257) [%] | cell count (UACC62) [%] | cell count (WM115) [%] | cell count (WM1716) [%] | cell count (WM1745) [%] | cell count (WM3526) [%] |
| --- | --- | --- | --- | --- | --- | --- | --- | --- | --- | --- |
| CC(C)(C)c1cnc(CSc2cnc(NC(=O)C3CCNCC3)s2)o1 + COc1cc2c(Oc3ccc4[nH]c(C)cc4c3F)ncnc2cc1OCCCN1CCCC1 [cediranib] (first compound 0.05 µM, partner dose 2 µM) | 56.7 | 70.3 | 88.7 | 68.8 | 87 | 48.8 | 59.6 | 72.5 | 57.7 | 84.1 |
| Cc1ccc(NC(=O)c2cccc(N(C)C)c2)cc1NC(=O)c1ccc(O)cc1 + COc1ccc(-c2ccc3c(N4CCOCC4)nc(N4C[C@@H](C)O[C@@H](C)C4)nc3n2)cc1CO [KU0063794] (first compound 10 µM, partner dose 0.1 µM) | 59.8 | 88.7 | 92.2 | 71.1 | 93.1 | 130 | 84.6 | 98.2 | 58.9 | 70.7 |
| CCCCCCCCc1ccc(CCC(N)(CO)CO)cc1 [fingolimod] + O=C(CCCCCCC(=O)Nc1ccccc1)NO [vorinostat] (first compound 10 µM, partner dose 0.4 µM) | 0.268 | 0.397 | 16.6 | 50.5 | 56.2 | 16.3 | 20.2 | 37.2 | 2.61 | 19 |
| CCCCCCCCc1ccc(CCC(N)(CO)CO)cc1 [fingolimod] + OCc1c[nH]c2ccccc12 [Indole-3-carbinol] (first compound 10 µM, partner dose 4 µM) | 0.264 | 0.382 | 6.09 | 35.1 | 56.2 | 8.9 | 13 | 17.9 | 12.6 | 24.6 |
| CC(C)(C)c1cnc(CSc2cnc(NC(=O)C3CCNCC3)s2)o1 + Cn1cc(/C=C2\C(=O)Nc3cccnc32)c2ccccc21 [GW441756] (first compound 0.05 µM, partner dose 2 µM) | 51.2 | 69.7 | 68.2 | 40.1 | 90.4 | 51.5 | 75.7 | 80.1 | 49.5 | 97.7 |
| COc1cc2c(Oc3ccc4[nH]c(C)cc4c3F)ncnc2cc1OCCCN1CCCC1 [cediranib] + CCc1ccc(CCOc2ccc(CC3SC(=O)NC3=O)cc2)nc1 [pioglitazone] (first compound 2 µM, partner dose 10 µM) | 126 | 86.5 | 99 | 68.1 | 95.1 | 87.5 | 86.9 | 96 | 98.5 | 81.1 |
| CN(NC(=O)CC(=O)NN(C)C(=S)c1ccccc1)C(=S)c1ccccc1 + Oc1cc(-c2nc(-c3ccccc3)[nH]c2-c2ccncc2)ccc1Cl [L779450] (first compound 0.03 µM, partner dose 1 µM) | 2.87 | 13.7 | 90.5 | 66 | 92.2 | 18.9 | 23.3 | 62.6 | 24.3 | 58.1 |
